Sequences and labels used below:
T1: RBFOX1 RRM (Homo sapiens, UniProt Q9NWB1 109-208)
T1 sequence: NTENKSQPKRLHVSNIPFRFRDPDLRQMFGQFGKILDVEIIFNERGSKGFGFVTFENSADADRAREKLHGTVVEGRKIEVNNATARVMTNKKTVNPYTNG

B1: AUGCUCU (DNA:RNA)
RNA: GGGAGACCGGAAUUCAGAUUGUCCAUGCUCUUUAAAUCCCGUCGUAGCCACCA
DNA 1: CAATCTGAATTCCGGTCTCCC
DNA 2: TGGTGGCTACGACGGGATT
B2: CCUCUUA (DNA:RNA)
RNA: B1 RNA with A25C, U26C, G27U, C30U, U31A
DNA 1: CAATCTGAATTCCGGTCTCCC
DNA 2: TGGTGGCTACGACGGGATT
B3: GCUCCAA (DNA:RNA)
RNA: B1 RNA with A25G, U26C, G27U, U29C, C30A, U31A
DNA 1: CAATCTGAATTCCGGTCTCCC
DNA 2: TGGTGGCTACGACGGGATT
B4: GUAAGCC (DNA:RNA)
RNA: B1 RNA with A25G, G27A, C28A, U29G, U31C
DNA 1: CAATCTGAATTCCGGTCTCCC
DNA 2: TGGTGGCTACGACGGGATT
B5: ACCCCGC (DNA:RNA)
RNA: B1 RNA with U26C, G27C, U29C, C30G, U31C
DNA 1: CAATCTGAATTCCGGTCTCCC
DNA 2: TGGTGGCTACGACGGGATT
B6: CUAAGUA (DNA:RNA)
RNA: B1 RNA with A25C, G27A, C28A, U29G, C30U, U31A
DNA 1: CAATCTGAATTCCGGTCTCCC
DNA 2: TGGTGGCTACGACGGGATT
B7: CUGUCCC (DNA:RNA)
RNA: B1 RNA with A25C, C28U, U29C, U31C
DNA 1: CAATCTGAATTCCGGTCTCCC
DNA 2: TGGTGGCTACGACGGGATT
B8: AUUUCAC (DNA:RNA)
RNA: B1 RNA with G27U, C28U, U29C, C30A, U31C
DNA 1: CAATCTGAATTCCGGTCTCCC
DNA 2: TGGTGGCTACGACGGGATT
B9: CUCGGCG (DNA:RNA)
RNA: B1 RNA with A25C, G27C, C28G, U29G, U31G
DNA 1: CAATCTGAATTCCGGTCTCCC
DNA 2: TGGTGGCTACGACGGGATT
B10: UAGCUGG (DNA:RNA)
RNA: B1 RNA with A25U, U26A, C30G, U31G
DNA 1: CAATCTGAATTCCGGTCTCCC
DNA 2: TGGTGGCTACGACGGGATT
B11: AUCGGAA (DNA:RNA)
RNA: B1 RNA with G27C, C28G, U29G, C30A, U31A
DNA 1: CAATCTGAATTCCGGTCTCCC
DNA 2: TGGTGGCTACGACGGGATT
B12: UGGGAGA (DNA:RNA)
RNA: B1 RNA with A25U, U26G, C28G, U29A, C30G, U31A
DNA 1: CAATCTGAATTCCGGTCTCCC
DNA 2: TGGTGGCTACGACGGGATT
B13: CGGUUUG (DNA:RNA)
RNA: B1 RNA with A25C, U26G, C28U, C30U, U31G
DNA 1: CAATCTGAATTCCGGTCTCCC
DNA 2: TGGTGGCTACGACGGGATT
B14: CGCGAUG (DNA:RNA)
RNA: GGGAGACCGGAAUUCAGAUUGUCCCGCGAUGUUAAAUCCCGUCGUAGCCACCA
DNA 1: CAATCTGAATTCCGGTCTCCC
DNA 2: TGGTGGCTACGACGGGATT
B15: AGCUGUC (DNA:RNA)
RNA: B14 RNA with C25A, G28U, A29G, G31C
DNA 1: CAATCTGAATTCCGGTCTCCC
DNA 2: TGGTGGCTACGACGGGATT
B16: UCUGAAU (DNA:RNA)
RNA: B14 RNA with C25U, G26C, C27U, U30A, G31U
DNA 1: CAATCTGAATTCCGGTCTCCC
DNA 2: TGGTGGCTACGACGGGATT
B17: CGAUAAU (DNA:RNA)
RNA: B14 RNA with C27A, G28U, U30A, G31U
DNA 1: CAATCTGAATTCCGGTCTCCC
DNA 2: TGGTGGCTACGACGGGATT
B18: AAGGAUG (DNA:RNA)
RNA: B14 RNA with C25A, G26A, C27G
DNA 1: CAATCTGAATTCCGGTCTCCC
DNA 2: TGGTGGCTACGACGGGATT
B19: GUCAUUG (DNA:RNA)
RNA: B14 RNA with C25G, G26U, G28A, A29U
DNA 1: CAATCTGAATTCCGGTCTCCC
DNA 2: TGGTGGCTACGACGGGATT
B20: AAGUCAA (DNA:RNA)
RNA: B1 RNA with U26A, C28U, U29C, C30A, U31A
DNA 1: CAATCTGAATTCCGGTCTCCC
DNA 2: TGGTGGCTACGACGGGATT
B21: UGCAGCU (DNA:RNA)
RNA: B1 RNA with A25U, U26G, G27C, C28A, U29G
DNA 1: CAATCTGAATTCCGGTCTCCC
DNA 2: TGGTGGCTACGACGGGATT
B22: UGUCACG (DNA:RNA)
RNA: B14 RNA with C25U, C27U, G28C, U30C
DNA 1: CAATCTGAATTCCGGTCTCCC
DNA 2: TGGTGGCTACGACGGGATT
B23: GAGACCG (DNA:RNA)
RNA: B1 RNA with A25G, U26A, C28A, U29C, U31G
DNA 1: CAATCTGAATTCCGGTCTCCC
DNA 2: TGGTGGCTACGACGGGATT
B24: GCGGACA (DNA:RNA)
RNA: B1 RNA with A25G, U26C, C28G, U29A, U31A
DNA 1: CAATCTGAATTCCGGTCTCCC
DNA 2: TGGTGGCTACGACGGGATT
B25: AUUGUCG (DNA:RNA)
RNA: B1 RNA with G27U, C28G, U31G
DNA 1: CAATCTGAATTCCGGTCTCCC
DNA 2: TGGTGGCTACGACGGGATT
B26: UACAACC (DNA:RNA)
RNA: B14 RNA with C25U, G26A, G28A, U30C, G31C
DNA 1: CAATCTGAATTCCGGTCTCCC
DNA 2: TGGTGGCTACGACGGGATT
B27: GCGUCCA (DNA:RNA)
RNA: B1 RNA with A25G, U26C, C28U, U29C, U31A
DNA 1: CAATCTGAATTCCGGTCTCCC
DNA 2: TGGTGGCTACGACGGGATT
B28: UUCGGGC (DNA:RNA)
RNA: B14 RNA with C25U, G26U, A29G, U30G, G31C
DNA 1: CAATCTGAATTCCGGTCTCCC
DNA 2: TGGTGGCTACGACGGGATT
B29: UUGUGUG (DNA:RNA)
RNA: B1 RNA with A25U, C28U, U29G, C30U, U31G
DNA 1: CAATCTGAATTCCGGTCTCCC
DNA 2: TGGTGGCTACGACGGGATT
B30: UGAUCGU (DNA:RNA)
RNA: B1 RNA with A25U, U26G, G27A, C28U, U29C, C30G
DNA 1: CAATCTGAATTCCGGTCTCCC
DNA 2: TGGTGGCTACGACGGGATT
B31: AGUAUGU (DNA:RNA)
RNA: B1 RNA with U26G, G27U, C28A, C30G
DNA 1: CAATCTGAATTCCGGTCTCCC
DNA 2: TGGTGGCTACGACGGGATT

Changes are numbered by the printed parent chain; changes in the protein carry UniProt numbers. The list shows a part of the results.

This assay deals with T1, RBFOX1 RRM. In words: EMSA; HiTS-Eq, 1 nM pool, 10 min; buffer printed only for the single-RNA assays: 10 mM Tris pH 7.5, 150 mM NaCl, 3.4 mM EDTA, 0.001% NP-40, 30 C. As to conditions: tags: His6 N-terminal (pET28a); label: 5' 32P. In a few lines: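 Relative association constants, normalised to the cognate motif, were derived by comparing read counts of each RNA species with those of the control reaction. The RNA sequenced was the free fraction, separated by 8% native PAGE after a 10 min equilibration in 50 µL of 1 nM 5′-radiolabelled RNA (7 randomized nucleotides) with increasing concentrations of purified wild-type or mutant RbFox RRM.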
Regarding B1, the binding signal is 0.0104 KA relative to UGCAUGU. B2: the binding signal was 0.00531 KA relative to UGCAUGU. Consider B3, for which the binding signal is 0.00872 KA relative to UGCAUGU. To B4 belongs 0.0103 KA relative to UGCAUGU; to B5, 0.00028 KA relative to UGCAUGU; to B6, 0.00744 KA relative to UGCAUGU.

With B7, the binding signal was 0.00986 KA relative to UGCAUGU. To B8 belongs 0.00279 KA relative to UGCAUGU; to B9, 0.0159 KA relative to UGCAUGU. For B10, the binding signal was 0.018 KA relative to UGCAUGU. To B11 belongs 0.00417 KA relative to UGCAUGU.

B12: the binding signal is 0.025 KA relative to UGCAUGU.

Consider B13, for which the binding signal is 0.026 KA relative to UGCAUGU. Turning to B14, the binding signal is 0.0159 KA relative to UGCAUGU. To B15 belongs 0.0125 KA relative to UGCAUGU. Turning to B16, the binding signal was 0.0102 KA relative to UGCAUGU. Regarding B17, the binding signal is 0.00218 KA relative to UGCAUGU. Turning to B18, the binding signal was 0.0141 KA relative to UGCAUGU.

Regarding B19, the binding signal is 0.0126 KA relative to UGCAUGU. To B20 belongs 0.00252 KA relative to UGCAUGU; to B21, 0.0159 KA relative to UGCAUGU.

As to B22, the binding signal is 0.016 KA relative to UGCAUGU.

As to B23, the binding signal is 0.00974 KA relative to UGCAUGU. For B24, the binding signal was 0.00658 KA relative to UGCAUGU. To B25 belongs 0.0184 KA relative to UGCAUGU.

Regarding B26, the binding signal is 0.00313 KA relative to UGCAUGU. To B27 belongs 0.0119 KA relative to UGCAUGU; to B28, 0.0034 KA relative to UGCAUGU; to B29, 0.0403 KA relative to UGCAUGU. Take B30: the binding signal was 0.0285 KA relative to UGCAUGU. To B31 belongs 0.016 KA relative to UGCAUGU.

The values are drawn from article PMC9911399, “Two distinct binding modes provide the RNA-binding protein RbFox with extraordinary sequence specificity”.
